# Test results from the FLAb antibody collection.
# Assay: patients with anti-drug antibodies; higher = more immunogenic
row,Protein,patients with anti-drug antibodies
1,unnamed (protein) chain 1: EVQLVESGGGLVQPGGSLRLSCAASGFTFSNYWMNWVRQAPGKGLEWVAAINQDGSEKYYVGSVKGRFTISRDNAKNSLYLQMNSLRVEDTAVYYCVRDYYDILTDYYIHYWYFDLWGRGTLVTVSS chain 2: [about 100 residues not shown],1%
2,unnamed (protein) chain 1: QVQLVQSGAEVKKPGASVKVSCKASGYTFTSYSISWVRQAPGQGLEWMGWISVYNGNTNYAQKFQGRVTMTTDTSTSTAYLELRSLRSDDTAVYYCARDPIAAGYWGQGTLVTVSS chain 2: [about 100 residues not shown],0%
3,unnamed (protein) chain 1: EVQLVQSGAEVKKSGESLKISCKGSGYSFTSYWIGWVRQMPGKGLEWMGIFYPGDSSTRYSPSFQGQVTISADKSVNTAYLQWSSLKASDTAMYYCARRRNWGNAFDIWGQGTMVTVSS chain 2: [about 100 residues not shown],0%
4,unnamed (protein) chain 1: QMQLVESGGGVVQPGRSLRLSCTASGFTFSNNGMHWVRQAPGKGLEWVAVIWFDGMNKFYVDSVKGRFTISRDNSKNTLYLEMNSLRAEDTAIYYCAREGDGSGIYYYYGMDVWGQGTTVTVSS chain 2: [about 100 residues not shown]TFGPGTKVDIK,0%
5,unnamed (protein) chain 1: [about 100 residues not shown]DGSSGWYVPHWFDPWGQGTLVTVSS chain 2: NFMLTQPHSVSESPGKTVTISCTRSSGSIASNYVQWYQQRPGSSPTTVIYEDNQRPSGVPDRFSGSIDSSSNSASLTISGLKTEDEADYYCQSYDGSNRWMFGGGTKLTVL,3.5%
6,unnamed (protein) chain 1: QVQLQESGPGLVKPSGTLSLTCAVSGGSISSSNWWSWVRQPPGKGLEWIGEIYHSGSTNYNPSLKSRVTISVDKSKNQFSLKLSSVTAADTAVYYCARWTGRTDAFDIWGQGTMVTVSS chain 2: [about 100 residues not shown]THWPLTFGQGTKVEIK,5.2%
